Assay results as given in the antibiotic and cytotoxicity screens of Wong et al. (2023).
The list shows a part of the results.

Key:
[1] = system: HSkMC (human skeletal muscle cells); assay: cytotoxicity call (relative viability < 0.9); settings: 10 µM
[2] = system: HepG2; assay: cytotoxicity call (relative viability < 0.9); settings: 10 µM
[3] = system: S. aureus RN4220; assay: growth inhibition call (relative growth <= 0.2); settings: 50 µM

Row | Compound | cytotoxicity call [1] | cytotoxicity call [2] | growth inhibition call [3]
1 | CCCCCCCCCC(=O)O | inactive | inactive | inactive
2 | O=C(C[C@@H]1CC[C@@H]2[C@H](COC[C@@H](O)CN2C(=O)c2ccc(F)cc2)O1)NCCCN1CCOCC1 | inactive | inactive | inactive
3 | CC1(C)CC[C@]2(C(=O)O[C@@H]3OC[C@@H](O)[C@H](O)[C@H]3O)CC[C@]3(C)C(=CC[C@H]4[C@@]5(C)C[C@@H](O)[C@H](O)[C@@](C)(CO)[C@@H]5[C@H](O)C[C@]43C)[C@@H]2C1 | inactive | inactive | inactive
4 | N[C@@H]1CCCN(c2c(Br)cnc3[nH]cc(NC(=O)C4CC4)c23)C1 | active | inactive | inactive
5 | C=CC[C@@H](CC(=O)N(CCO)Cc1ccccc1)C(=O)N[C@@H](COC(=O)[C@H](CC=C)Cc1ccc(F)cc1)Cc1c[nH]c2ccccc12 | active | active | inactive
6 | C[C@@H]1CCCCO[C@H](CN(C)C(=O)c2ccccc2)[C@@H](C)CN([C@H](C)CO)C(=O)c2cc(NC(=O)Nc3ccccc3)ccc2O1 | inactive | inactive | inactive
7 | O=C(N[C@@H]1CC[C@H](CC(=O)N2CCOCC2)O[C@@H]1CO)c1ccc2c(c1)OCO2 | inactive | inactive | inactive
8 | O=C1C=CC(=O)N1c1ccc(O)cc1 | active | active | inactive
9 | Cc1ccc(S(=O)(=O)N(C)C[C@@H]2Oc3ccc(NS(=O)(=O)c4ccccc4)cc3C(=O)N([C@@H](C)CO)C[C@@H]2C)cc1 | inactive | inactive | inactive
10 | Cc1noc(C)c1NC(=O)N(C)C[C@@H]1Oc2c(NC(=O)C3CC3)cccc2C(=O)N([C@H](C)CO)C[C@@H]1C | inactive | inactive | inactive
11 | C[C@@H]1CN([C@@H](C)CO)C(=O)c2c(c3ccccc3n2C)-c2ccccc2CO[C@@H]1CN(C)S(=O)(=O)c1ccc(Cl)cc1 | inactive | inactive | inactive
12 | C[C@@H]1CN([C@@H](C)CO)C(=O)c2cc(NC(=O)Cc3ccccc3)ccc2O[C@@H](C)CCCCO[C@@H]1CN(C)S(=O)(=O)c1ccc(F)cc1 | inactive | inactive | inactive
13 | COc1ccc2c3c(n(c2c1)C)[C@H](CO)N(C[C@]13CN(C1)C(=O)c1ccncc1)C(=O)C1CCCCC1 | inactive | inactive | inactive
14 | C[C@@H]1CN([C@@H](C)CO)C(=O)c2cc(NS(=O)(=O)c3ccccc3)ccc2O[C@H]1CN(C)S(=O)(=O)c1ccccc1 | inactive | inactive | inactive
15 | NCc1cccc(N2CCCCC2)c1 | inactive | inactive | inactive
16 | Cc1noc(C)c1S(=O)(=O)N(C)C[C@H]1Oc2c(NC(=O)c3cnccn3)cccc2C(=O)N([C@@H](C)CO)C[C@H]1C | inactive | inactive | inactive
17 | COC(=O)Cn1c(=N)n(C)c2ccccc21 | inactive | inactive | inactive
18 | C[C@@H]1CN([C@H](C)CO)S(=O)(=O)c2ccc(C#Cc3cccc(F)c3)cc2O[C@@H]1CN(C)C(=O)CN1CCOCC1 | inactive | inactive | inactive
19 | CC(=O)NC1C(O)CC(O)(C(=O)O)OC1C(O)C(O)CO (configuration not stated) | inactive | inactive | inactive
20 | Cc1ccc(S(=O)(=O)N(C)C[C@H]2Oc3c(NC(=O)C4CC4)cccc3C(=O)N([C@@H](C)CO)C[C@@H]2C)cc1 | inactive | inactive | inactive
21 | CCSc1ncnc(N)n1 | inactive | inactive | inactive
22 | C=CCNC1=C2C[C@@H](C)C[C@H](OC)[C@H](O)[C@@H](C)/C=C(\C)[C@H](OC(N)=O)[C@@H](OC)/C=C\C=C(/C)C(=O)NC(=CC1=O)C2=O | active | active | inactive
23 | C[C@H](CO)N1C[C@H](C)[C@H](CN(C)C(=O)Nc2ccc(C(F)(F)F)cc2)Oc2ccc(NS(C)(=O)=O)cc2C1=O | inactive | inactive | inactive
24 | Cc1cc(C(=O)Nc2cccc3c2O[C@@H](CN(C)C(=O)Nc2c(C)noc2C)[C@H](C)CN([C@@H](C)CO)C3=O)n(C)n1 | inactive | inactive | inactive
25 | O=S(=O)(Cc1ccccc1)Nc1ccc(-c2ccc3c(cnn3-c3ccc(F)cc3)c2)c(C(F)(F)F)c1 | inactive | inactive | inactive
26 | O=C1N[C@@H](Cc2c[nH]c3ccccc23)COC(=O)[C@H](Cc2ccc(F)cc2)CCC=CC[C@@H]1CC(=O)N(CCO)Cc1ccccc1 | inactive | inactive | inactive
27 | O=C(CN1CCOCC1)N[C@@H]1CC[C@@H](CCNC(=O)Nc2cc(F)ccc2F)O[C@H]1CO | inactive | inactive | inactive
28 | O=C1CNC(=O)N1C1CCNCC1 | inactive | inactive | inactive
29 | CO[C@H]1O[C@H](CO)[C@@H](OC(=O)Nc2ccccc2-c2ccccc2)[C@H](OC(=O)Nc2ccc3c(c2)OCO3)[C@@H]1OC(=O)Nc1ccc2c(c1)OCO2 | inactive | inactive | inactive
